Reference: the supplement of paper PMC8728848
The other results are listed elsewhere or left out.

Experiments:
Assay in all cases: glycan array binding signal (z-score within array); higher = stronger binding
Conditions in all cases: glycan notation: IUPAC condensed, linker removed
Neu5Ac(a2-8)Neu5Ac = target: Neu5Ac(a2-8)Neu5Ac
Summary of the method: (§1)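 The binding signal is a Z-score computed within each array and averaged over linkers. Arrays of the same protein sequence at different concentrations or buffers were also averaged together. Data originate from 3228 arrays in the Consortium for Functional Glycomics database, kept only where the protein sequence was available.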

[1] = target: Neu5Ac(a2-8)Neu5Ac(a2-3)Gal(b1-3)GalNAc(b1-4)[Neu5Ac(a2-3)]Gal(b1-4)Glc
Summary of the method: as §1

[2] = target: Neu5Ac(a2-8)Neu5Ac(a2-3)Gal(b1-3)GalNAc(b1-4)[Neu5Ac(a2-8)Neu5Ac(a2-3)]Gal(b1-4)Glc
Summary of the method: as §1

[3] = target: Neu5Ac(a2-8)Neu5Ac(a2-3)Gal(b1-4)Glc
Summary of the method: as §1

[4] = target: Neu5Ac(a2-8)Neu5Ac(a2-3)Gal(b1-4)GlcNAc
Summary of the method: as §1

[5] = target: Neu5Ac(a2-8)Neu5Ac(a2-3)[Gal(b1-3)GalNAc(b1-4)]Gal(b1-4)Glc
Summary of the method: as §1

[6] = target: Neu5Ac(a2-8)Neu5Ac(a2-3)[GalNAc(b1-4)]Gal(b1-4)Glc
Summary of the method: as §1

[7] = target: Neu5Ac(a2-8)Neu5Ac(a2-8)Neu5Ac
Summary of the method: as §1

[8] = target: Neu5Ac(a2-8)Neu5Ac(a2-8)Neu5Ac(a2-3)Gal(b1-4)Glc
Summary of the method: as §1

[9] = target: Neu5Ac(a2-8)Neu5Ac(a2-8)Neu5Ac(a2-3)[Gal(b1-3)GalNAc(b1-4)]Gal(b1-4)Glc
Summary of the method: as §1

[10] = target: Neu5Ac(a2-8)Neu5Ac(a2-8)Neu5Ac(a2-3)[GalNAc(b1-4)]Gal(b1-4)Glc
Summary of the method: as §1

[11] = target: Neu5Ac(a2-8)Neu5Ac(a2-8)Neu5Ac(a2-8)Neu5Ac(a2-3)[GalNAc(b1-4)]Gal(b1-4)Glc
Summary of the method: as §1

[12] = target: Neu5Ac(a2-8)Neu5Gc(a2-3)Gal(b1-4)GlcNAc
Summary of the method: as §1

[13] = target: Neu5Ac(b2-6)Gal(b1-4)GlcNAc
Summary of the method: as §1

Neu5Ac(b2-6)GalNAc = target: Neu5Ac(b2-6)GalNAc
Summary of the method: as §1

[14] = target: Neu5Ac9Ac(a2-3)Gal(b1-3)GlcNAc
Summary of the method: as §1

[15] = target: Neu5Ac9Ac(a2-3)Gal(b1-4)GlcNAc
Summary of the method: as §1

[16] = target: Neu5Ac9Ac(a2-6)Gal(b1-4)GlcNAc
Summary of the method: as §1

[17] = target: Neu5Gc(a2-3)Gal(b1-3)GlcNAc
Summary of the method: as §1

[18] = target: Neu5Gc(a2-3)Gal(b1-3)[Fuc(a1-4)]GlcNAc
Summary of the method: as §1

Neu5Gc(a2-3)Gal(b1-4)Glc = target: Neu5Gc(a2-3)Gal(b1-4)Glc
Summary of the method: as §1

[19] = target: Neu5Gc(a2-3)Gal(b1-4)GlcNAc
Summary of the method: as §1

[20] = target: Neu5Gc(a2-3)Gal(b1-4)GlcNAc(b1-3)Gal(b1-4)GlcNAc(b1-2)Man(a1-3)[Neu5Gc(a2-3)Gal(b1-4)GlcNAc(b1-3)Gal(b1-4)GlcNAc(b1-2)Man(a1-6)]Man(b1-4)GlcNAc(b1-4)GlcNAc
Summary of the method: as §1

[21] = target: Neu5Gc(a2-3)Gal(b1-4)[Fuc(a1-3)]GlcNAc
Summary of the method: as §1

[22] = target: Neu5Gc(a2-6)Gal(b1-4)GlcNAc
Summary of the method: as §1

Neu5Gc(a2-6)GalNAc = target: Neu5Gc(a2-6)GalNAc
Summary of the method: as §1

[23] = target: Neu5Gc(a2-8)Neu5Ac(a2-3)Gal(b1-4)GlcNAc
Summary of the method: as §1

[24] = target: Neu5Gc(a2-8)Neu5Gc(a2-3)Gal(b1-4)GlcNAc
Summary of the method: as §1

[25] = target: Neu5Gc(a2-8)Neu5Gc(a2-3)Gal(b1-4)GlcNAc(b1-3)Gal(b1-4)GlcNAc
Summary of the method: as §1

[26] = target: Neu5Gc(a2-8)Neu5Gc(a2-6)Gal(b1-4)GlcNAc
Summary of the method: as §1

[27] = target: Neu5Gc(b2-6)Gal(b1-4)GlcNAc
Summary of the method: as §1

B1: Mermaid3 (Stilbonema majum) (protein)
chain: MGSSHHHHHHSSGLVPRGSHMAASGWLRSPQGTVVKLYRRSLSWSKADEFCKDVDGRLVVDRTADMHLFLIKNVLKEKKSRVWVGLRRTASHSRTWIWSDGTRQNEGDLDANLWLRDEPNDAAGEEECALFMYSPWEKAWGLNDYLCRGGCRNYQFICEKWIR
Q: What does the source list for B1?
A: glycan array binding signal (z-score) (Neu5Ac(a2-8)Neu5Ac): -0.57; glycan array binding signal (z-score) [1]: -0.831; glycan array binding signal (z-score) [2]: 2.95; glycan array binding signal (z-score) [3]: -0.872; glycan array binding signal (z-score) [4]: -0.414; glycan array binding signal (z-score) [5]: -0.231; glycan array binding signal (z-score) [6]: -0.629; glycan array binding signal (z-score) [7]: -0.478; glycan array binding signal (z-score) [8]: -0.616; glycan array binding signal (z-score) [9]: -0.283; glycan array binding signal (z-score) [10]: -0.579; glycan array binding signal (z-score) [11]: -0.231; glycan array binding signal (z-score) [12]: -0.607; glycan array binding signal (z-score) [13]: -0.658; glycan array binding signal (z-score) (Neu5Ac(b2-6)GalNAc): -0.572; glycan array binding signal (z-score) [14]: -0.518; glycan array binding signal (z-score) [15]: -0.2; glycan array binding signal (z-score) [16]: -0.153; glycan array binding signal (z-score) [17]: -0.146; glycan array binding signal (z-score) [18]: 0.423; glycan array binding signal (z-score) (Neu5Gc(a2-3)Gal(b1-4)Glc): 1.91; glycan array binding signal (z-score) [19]: -0.313; glycan array binding signal (z-score) [20]: -0.745; glycan array binding signal (z-score) [21]: 2.08; glycan array binding signal (z-score) [22]: 0.94; glycan array binding signal (z-score) (Neu5Gc(a2-6)GalNAc): 0.785; glycan array binding signal (z-score) [23]: -0.587; glycan array binding signal (z-score) [24]: -0.787; glycan array binding signal (z-score) [25]: -0.82; glycan array binding signal (z-score) [26]: -0.516; glycan array binding signal (z-score) [27]: -0.424
